Measured values: the supplement of paper PMC10369915
Some of the results follow. No stated cut-off is given here; in the data, active = 3.2 or more and inactive = the rest. Most of these values are background signal.

B1: PLCG1_HUMAN_977 (peptide)
chain: IGTERACYRDMSSFP
B2: PLCG2_HUMAN_1245 (peptide)
chain: NENQLQLYQEKCNKR
B3: PLD2_HUMAN_511 (peptide)
chain: FFWLGKDYSNLITKD
B4: PLEC_HUMAN_3033 (peptide)
chain: AKGGELVYTDSEARD
B5: PLEKHG2_HUMAN_489 (peptide)
chain: SEPVKDPYVMFPQNA
B6: PLOD2_HUMAN_323 (peptide)
chain: DILLTLDYPKEALKL
B7: PLS4_HUMAN_83 (peptide)
chain: GGIHPVRYQPGKYPM
B8: PLS4_HUMAN_83_YA (peptide)
chain: GGIHPVRYQPGKAPM
B9: PLS4_HUMAN_88_YA (peptide)
chain: VRAQPGKYPMPNQSV
B10: PLSI_HUMAN_30 (peptide)
chain: IDIDNSGYVSDYELQ
B11: PLSI_HUMAN_30_YA (peptide)
chain: IDIDNSGYVSDAELQ
B12: PLSL_HUMAN_124 (peptide)
chain: SYSEEEKYAFVNWIN
B13: PLSL_HUMAN_124_YA (peptide)
chain: SASEEEKYAFVNWIN
B14: PLXB1_HUMAN_1708 (peptide)
chain: DSVGEPLYMLFRGIK
B15: ARHGAP5_HUMAN_306_YA (peptide)
chain: NHPDAEEYINLEGTR
B16: ARHGDIA_HUMAN_156 (peptide)
chain: YGPRAEEYEFLTPVE
B17: PP1A_HUMAN_306 (peptide)
chain: ADKNKGKYGQFSGLN
B18: PP1R8_HUMAN_335 (peptide)
chain: NEPKKKKYAKEAWPG
B19: PP2AA_HUMAN_307 (peptide)
chain: VTRRTPDYFLGGGGG
B20: PR15A_HUMAN_262 (peptide)
chain: SDPRSWEYRSGEASE
B21: PR15A_HUMAN_512 (peptide)
chain: CPFRVAIYVPGEKPP
B22: PRDX1_HUMAN_194 (peptide)
chain: DVQKSKEYFSKQKGG
B23: PRMT5_HUMAN_304_YA (peptide)
chain: AELFAKGYEDALQSP
B24: PRMT5_HUMAN_307 (peptide)
chain: FAKGYEDYLQSPLQP
B25: PRMT5_HUMAN_307_YA (peptide)
chain: FAKGAEDYLQSPLQP
B26: PROF1_HUMAN_129 (peptide)
chain: GLINKKCYEMASHLR
B27: PRP4B_HUMAN_849 (peptide)
chain: ADNDITPYLVSRFYR
B28: PRP4B_HUMAN_849_YA (peptide)
chain: ADNDITPYLVSRFAR
B29: PSA2_HUMAN_6 (peptide)
chain: GGMAERGYSFSLTTF
B30: PSA6_HUMAN_159 (peptide)
chain: YKCDPAGYYCGFKAT
B31: PSA6_HUMAN_159_YA (peptide)
chain: AKCDPAGYACGFKAT
B32: PSB4_HUMAN_102_YA (peptide)
chain: MLGASGDYADFQALK
B33: PSMA7_HUMAN_106 (peptide)
chain: EDPVTVEYITRYIAS
B34: PTEN_HUMAN_27 (peptide)
chain: GFDLDLTYIYPNIIA
B35: PTEN_HUMAN_27_YA (peptide)
chain: GFDLDLTYIAPNIIA
B36: PTEN_HUMAN_46 (peptide)
chain: AERLEGVYRNNIDDV

Tests used:
Assay in all cases: enrichment score (SH2-bound / input frequency) (ratio); bacterial display of known human phosphotyrosine sites (pTyr-Var adds point mutants) read by sequencing; higher = stronger binding; tyrosines were phosphorylated by kinases first
Conditions in all cases: peptide library: Human pTyr
SHP2 C-SH2 domain E139D = molecular target: SHP2 C-SH2 domain E139D
[1] = molecular target: SHP2 C-SH2 domain wild-type
SHP2 N-SH2 domain L43F = molecular target: SHP2 N-SH2 domain L43F
SHP2 N-SH2 domain T42A = molecular target: SHP2 N-SH2 domain T42A
SHP2 N-SH2 domain T52S = molecular target: SHP2 N-SH2 domain T52S
[2] = molecular target: SHP2 N-SH2 domain wild-type
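Further: displayed peptides selected on beads carrying the immobilized SH2 domain, with library peptides lacking any tyrosine serving as negative controls.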

| Binder | enrichment score (SHP2 C-SH2 domain E139D) | enrichment score [1] | enrichment score (SHP2 N-SH2 domain L43F) | enrichment score (SHP2 N-SH2 domain T42A) | enrichment score (SHP2 N-SH2 domain T52S) | enrichment score [2] |
| --- | --- | --- | --- | --- | --- | --- |
| B1 | inactive: 0.845 | inactive: 0.578 | inactive: 0.636 | inactive: 0.649 | inactive: 0.793 | inactive: 0.783 |
| B2 | inactive: 1.69 | inactive: 0.932 | inactive: 0.947 | inactive: 0.893 | inactive: 0.693 | inactive: 1.29 |
| B3 | inactive: 1.77 | inactive: 1.86 | inactive: 1.53 | inactive: 1.42 | inactive: 1.6 | inactive: 1.94 |
| B4 | inactive: 0.733 | inactive: 0.677 | inactive: 0.765 | inactive: 0.59 | inactive: 0.754 | inactive: 0.688 |
| B5 | inactive: 0.733 | inactive: 0.528 | inactive: 0.512 | inactive: 0.595 | inactive: 0.723 | inactive: 0.683 |
| B6 | inactive: 0.876 | inactive: 0.649 | inactive: 0.594 | inactive: 0.616 | inactive: 0.793 | inactive: 0.842 |
| B7 | inactive: 2.59 | inactive: 2.71 | inactive: 2.5 | inactive: 2.71 | inactive: 2.92 | active: 3.51 |
| B8 | inactive: 2.78 | inactive: 2.85 | inactive: 2.68 | inactive: 2.59 | inactive: 3.08 | active: 3.6 |
| B9 | inactive: 2.06 | inactive: 1.94 | inactive: 1.75 | inactive: 2.01 | inactive: 2.18 | inactive: 2.78 |
| B10 | inactive: 0.667 | inactive: 0.68 | inactive: 0.691 | inactive: 0.665 | inactive: 0.877 | inactive: 0.711 |
| B11 | inactive: 0.768 | inactive: 0.647 | inactive: 0.804 | inactive: 0.945 | inactive: 0.763 | inactive: 0.868 |
| B12 | inactive: 0.856 | inactive: 0.943 | inactive: 0.928 | inactive: 0.75 | inactive: 0.839 | inactive: 0.932 |
| B13 | inactive: 1.12 | inactive: 0.807 | inactive: 1.18 | inactive: 0.823 | inactive: 0.696 | inactive: 1.03 |
| B14 | inactive: 1.27 | inactive: 1.34 | inactive: 1.07 | inactive: 1.13 | inactive: 1.31 | inactive: 1.3 |
| B15 | inactive: 0.816 | inactive: 0.705 | inactive: 0.702 | inactive: 0.716 | inactive: 0.694 | inactive: 0.877 |
| B16 | inactive: 0.923 | inactive: 0.65 | inactive: 0.902 | inactive: 0.732 | inactive: 0.857 | inactive: 0.757 |
| B17 | inactive: 1.4 | inactive: 1.49 | inactive: 1.5 | inactive: 1.32 | inactive: 1.49 | inactive: 1.86 |
| B18 | inactive: 0.581 | inactive: 0.779 | inactive: 0.61 | inactive: 0.546 | inactive: 0.646 | inactive: 0.552 |

| Binder | enrichment score (SHP2 C-SH2 domain E139D) | enrichment score [1] | enrichment score (SHP2 N-SH2 domain L43F) | enrichment score (SHP2 N-SH2 domain T42A) | enrichment score (SHP2 N-SH2 domain T52S) | enrichment score [2] |
| --- | --- | --- | --- | --- | --- | --- |
| B19 | inactive: 1.53 | inactive: 0.96 | inactive: 0.676 | inactive: 1.04 | inactive: 0.909 | inactive: 1.06 |
| B20 | inactive: 0.739 | inactive: 0.625 | inactive: 0.774 | inactive: 0.591 | inactive: 0.704 | inactive: 0.616 |
| B21 | inactive: 1.62 | inactive: 1.5 | inactive: 1.22 | inactive: 1.4 | inactive: 1.66 | inactive: 1.91 |
| B22 | inactive: 1.31 | inactive: 1.1 | inactive: 1.05 | inactive: 1.04 | inactive: 1.16 | inactive: 1.28 |
| B23 | inactive: 0.355 | inactive: 0.548 | inactive: 0.443 | inactive: 0.843 | inactive: 0.761 | inactive: 0.384 |
| B24 | inactive: 1.84 | inactive: 0.528 | inactive: 1.1 | inactive: 0.568 | inactive: 0.526 | inactive: 0.604 |
| B25 | inactive: 0.531 | inactive: 0.519 | inactive: 0.701 | inactive: 0.524 | inactive: 0.493 | inactive: 0.621 |
| B26 | inactive: 1.44 | inactive: 1.34 | inactive: 1.21 | inactive: 1.24 | inactive: 1.35 | inactive: 1.32 |
| B27 | inactive: 1.67 | inactive: 1.24 | inactive: 0.915 | inactive: 0.83 | inactive: 1.04 | inactive: 1.44 |
| B28 | inactive: 1.02 | inactive: 0.854 | inactive: 0.825 | inactive: 0.681 | inactive: 0.803 | inactive: 0.611 |
| B29 | inactive: 1.27 | inactive: 1.16 | inactive: 1.11 | inactive: 1.18 | inactive: 1.27 | inactive: 1.45 |
| B30 | inactive: 1.79 | inactive: 1.91 | inactive: 1.71 | inactive: 1.84 | inactive: 2.35 | inactive: 2.12 |
| B31 | inactive: 1.04 | inactive: 0.937 | inactive: 0.698 | inactive: 0.839 | inactive: 1.14 | inactive: 1.06 |
| B32 | inactive: 0.433 | inactive: 0.459 | inactive: 0.596 | inactive: 0.577 | inactive: 1.33 | inactive: 0.496 |
| B33 | inactive: 0.907 | inactive: 0.706 | inactive: 0.877 | inactive: 0.754 | inactive: 0.567 | inactive: 0.842 |
| B34 | inactive: 1.5 | inactive: 1.55 | inactive: 1.31 | inactive: 1.41 | inactive: 1.38 | inactive: 1.74 |
| B35 | inactive: 1.54 | inactive: 1.13 | inactive: 1.04 | inactive: 1.31 | inactive: 1.23 | inactive: 1.24 |
| B36 | inactive: 0.929 | inactive: 0.753 | inactive: 0.767 | inactive: 0.843 | inactive: 0.6 | inactive: 0.772 |
